# Results reported in PubChem BioAssay AID463173 (ICCB-Longwood Screening Facility, Harvard Medical School, 2010).
# In all, about 52,000 compounds went through this assay and about 1,700 (3.3%) were called active. No stated cut-off is given here; in the data, active means survival mostly below about 52% (no sharp cut-off); inactive means mostly above about 56%. This is one part of the list.
# System: Wild type
# Test: growth inhibition of S. aureus wild type versus tarO mutant, primary screen, teichoic acid synthesis inhibitors, RN4220, OD600 (AID 463173)
# Conditions: S. aureus RN4220 wild type/DeltatarO growth, OD600, 18 h, hits give low values, screened at 18.75 µg/mL (by protocol)
row,SMILES,survival
1,O=S(=O)(NCCc1ccccc1)c1cccc(S(=O)(=O)N2CCOCC2)c1,inactive: 101%
2,COc1ccccc1N1CCN(CCCNC(=O)c2nnc(Cc3c(F)cccc3Cl)o2)CC1,inactive: 85%
3,COc1ccccc1-c1nc2c(c(SCC(=O)Nc3ccccc3F)n1)Cc1c(CO)cnc(C)c1O2,inactive: 99%
4,Cc1ccnc(N2CCC(C(=O)NCCC(C)C)CC2)n1,inactive: 103%
5,CCN1CCN(CCCNC(=O)Cn2c(-c3cccs3)cc3ccccc32)CC1,inactive: 74%
6,Cc1ccc2c(=O)cc(C(=O)N(Cc3ccccc3Cl)C3CCS(=O)(=O)C3)oc2c1 (stereo not drawn),inactive: 108%
7,COc1ccc(-c2cc(-c3ccccc3)c(C#N)c(SCC(O)CS(=O)(=O)Cc3ccccc3)n2)cc1 (stereo not drawn),inactive: 93%
8,Cc1ccc2cc(CN(Cc3cccs3)Cc3nnnn3C(C)(C)C)c3nnnn3c2c1,inactive: 103%
9,COc1ccc(/C=N/O)cc1COc1ccc(NC(C)=O)cc1,inactive: 105%
10,COc1ccccc1C(=O)Nc1c(C(=O)N2CCN(c3ccc(F)cc3)CC2)oc2ccccc12,active: -2%
11,COc1ccc(NC(=O)C2CCCN(C(=O)c3cnn(-c4ccccc4)c3-n3cccc3)C2)cc1 (stereo not drawn),inactive: 75%
12,COc1ccc(-c2noc(C3CCCN(C(=O)c4ccccc4)C3)n2)cc1 (stereo not drawn),inactive: 108%
13,CCOc1ccc(CCNC(=O)CS(=O)(=O)Cc2nc(-c3cccc(Cl)c3)oc2C)cc1,inactive: 82%
14,COc1ccc(S(=O)(=O)N2CCN(C(c3ccc(OC)c(OC)c3)c3nnnn3C3CCCCC3)CC2)cc1 (stereo not drawn),inactive: 103%
15,CC(O)CNC(=O)C(=O)Nc1c2c(nn1-c1ccc(Cl)cc1)CSC2 (stereo not drawn),inactive: 57%
16,COC(=O)c1ccc(NC(=O)CCc2c(C)nn(-c3ccc(N4CCOCC4)nn3)c2C)cc1,inactive: 74%
17,O=C(Nc1ccc(F)cc1)c1ccc(Cn2nc(N3CCN(c4ccccc4)CC3)ccc2=O)o1,inactive: 105%
18,O=C(CSc1nnc(CNc2ccc(F)cc2)o1)N1CCOCC1,inactive: 111%
19,O=C(CN1CCN(C(=O)N2CCCCC2)CC1)Nc1ccc(F)cc1,inactive: 124%
20,Cc1cc(C)c(NC(=O)CNC2CC(C)(C)NC(C)(C)C2)c(C)c1,inactive: 105%
21,CCOC(=O)c1c(C)[nH]c(C)c1S(=O)(=O)N1CCC(C(=O)N2CCN(c3cccc(C)c3C)CC2)CC1,inactive: 71%
22,COc1ccccc1-c1nc2c(c(SCc3ccc(F)cc3Cl)n1)Cc1c(CO)cnc(C)c1O2,inactive: 85%
23,COc1ccc(CCNc2nc(-c3ccc(Cl)cc3)cc(C(F)(F)F)n2)cc1OC,active: 18%
